Assay results published in PubChem BioAssay AID1671193 (National Center for Advancing Translational Sciences (NCATS), 2021).
“And” between values parts separate entries of the source, which are not always exact repeats. Identical values can stand only once. Among all 150,000 compounds or so, about 180 (0.12%) were called active. The inconclusive results got no clear call from the source; some entries with a clear call stand among them for comparison. Calls come from the whole dose curve; as a rule, active = well fitted cell-killing curve with a large enough effect; inconclusive = small, poorly fitted or top-dose-only effect, or effect the other way; inactive = flat fitted curve, though single readings scatter. Potencies of inconclusive entries are doubtful fits and often do not repeat.

Experiment: GF-AFC viability counterscreen for inhibitors of alpha-synuclein gene (SNCA) expression; note: nearly all actives have a fitted effect of over 30% in size
Details: HEK-293-SNCA-luc viability, GF-AFC fluorescence, 24 h; series mostly up to 57.1 µM
How it was run: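 Cytotoxicity counterscreen: after 24 h compound treatment of genome-edited SNCA-luciferase HEK-293 cells, live-cell protease substrate GF-AFC read by fluorescence after 30 min; activity scaled between DMSO (0%) and medium-only (-100%), curves Hill-fitted.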
Potency is the fitted concentration of half-maximal effect; tags give direction and shape of the fitted curve.

| Compound | Potency |
| --- | --- |
| COc1ccc(NC(=O)/C(C#N)=C/c2ccc(C)o2)cc1 | inconclusive: 0.562 µM [cytotoxic, full curve, poor fit] |
| CN(C)CCNC(=O)c1ccc2nc(CCc3ccccc3)oc2c1 | inconclusive: 39.8 µM [rising, single point] |
| COc1ccc(-n2nc(C3CCCN(C(=O)Cc4ccc(F)cc4)C3)[nH]c2=O)cc1 (stereo not drawn) | inconclusive: 14.1 µM [cytotoxic, partial curve, poor fit] |
| COc1cc(OC)c(NC(=O)c2ccc(Cc3cc4c(cc3C)C(C)(C)CCC4(C)C)o2)c(OC)c1 | inconclusive: 1.89 µM [cytotoxic, full curve, poor fit] |
| CN1C(=O)C2(CCN(CC3CCCCC3)C2)c2ccccc21 (stereo not drawn) | inconclusive: 5.01 µM [cytotoxic, full curve, poor fit] |
| COCCN1C(=O)c2[nH]nc(-c3c(C)cc(C)cc3O)c2C1c1cccc(O)c1 (stereo not drawn) | inconclusive: 25.1 µM [cytotoxic, single point] |
| O=c1[nH]c(N2CCOCC2)nc2c1CCN(Cc1ccccc1Cl)CC2 | inactive |
| CCCCC(CC)CN1CN(CC(CC)CCCC)CC(C)(N)C1 (stereo not drawn) | inconclusive: 1.78 µM [rising, full curve, poor fit] |
| COc1ccc(Nc2ccc3c(n2)CN(Cc2nc4ccccc4s2)C(=O)CO3)cn1 | inconclusive: 28.2 µM [cytotoxic, single point] |
| Cc1ccccc1-n1cc(-c2ccnc(NC3CCN(C)CC3)n2)cn1 | inactive |
| COc1cccc(F)c1-c1ncc2c(n1)OCCN(CC1CC1)C2=O | inactive |
| Cc1cccc(CN2CCc3ncc(C(=O)NCc4ccccc4)n3CC2)c1 | inconclusive: 1 µM [cytotoxic, full curve, poor fit] |
| CCS(=O)(=O)c1ccc2oc([C@H]3CCN(Cc4c[nH]c5ccccc45)C3)nc2c1 | inactive |
| COc1ccc(-c2nc(C3CC3)nc3c2CCN(Cc2ccsc2)CC3)cc1 | inconclusive: 4.47 µM [cytotoxic, full curve, poor fit] |
| CCOc1ccccc1NC(=O)c1c(NCc2ccc(OC)c(OC)c2OC)sc2c1CCC(C)C2 (stereo not drawn) | inconclusive: 3.98 µM [cytotoxic, full curve] |
| O=C(c1ccc(C(F)(F)F)cc1)N1CCCC2(C1)C(=NC1CCCC1)NC(=O)N2c1cc(F)cc(F)c1 (stereo not drawn) | inactive |
| COCCNc1cc(N2CCN(C3CCCCC3)CC2)c2noc3c2c1C(=O)c1ccccc1-3 | inconclusive: 10 µM [cytotoxic, partial curve] |
| O=C(Nc1cccc(F)c1)N1CC2(CCN(C(=O)c3ccco3)CC2)C1 | inconclusive: 39.8 µM [cytotoxic, single point] |
| Cc1ccccc1Cn1c(SCc2ccc(C(=O)NCCc3ccccc3)cc2)nc2ccncc21 | inconclusive: 39.8 µM [cytotoxic, partial curve, poor fit] |

| Compound | Potency |
| --- | --- |
| Cc1cccc(NC(=O)Cn2cc(S(=O)(=O)Cc3ccccc3Cl)c3ccccc32)c1 | inconclusive: 1 µM [cytotoxic, full curve, poor fit] |
| O=C(CC1N=C2c3ccccc3N=C(SCC(=O)Nc3ccc(F)cc3)N2C1=O)NCc1ccc2c(c1)OCO2 (stereo not drawn) | inconclusive: 35.5 µM [cytotoxic, single point] |
| CCN1C(=O)CCC2(C(=O)N3CCOCC3)CCCC=C12 (stereo not drawn) | inactive |
| O=C(Nc1nccs1)[C@@H]1C[C@@H](c2ccc(F)cc2)N(CCOc2ccccc2)C1 | inconclusive: 56.2 µM [cytotoxic, single point] |
| COc1ccc(C(=O)Nc2nc3n(n2)C(c2ccc(F)cc2)C=C(c2ccc(Cl)cc2)N3)cc1 (stereo not drawn) | inconclusive: 20 µM [rising, partial curve] |
| CCc1cccc(NS(=O)(=O)c2cc(-c3cnc(C)o3)ccc2OC)c1 | inconclusive: 35.5 µM [cytotoxic, single point] |
| CCC(CC)n1c(=O)n(Cc2ccc(C(=O)N(C)C)o2)c2cc(C(=O)O)cnc21 | inactive |
| CN1CCN(c2ncc3nc(-c4cccs4)c(=O)n(Cc4ccc(F)cc4)c3n2)CC1 | inconclusive: 12.6 µM [rising, partial curve, poor fit] |
| CCOc1ccc(NC(=O)CN2CCSc3ccc(S(=O)(=O)N4CCCC4)cc32)cc1 | inconclusive: 31.6 µM [cytotoxic, partial curve, poor fit] |
| O=C(C1CCCC1)N1CC2(CCN(Cc3c[nH]c4ccccc34)CC2)Cc2ccccc21 | inconclusive: 39.8 µM [cytotoxic, single point] |
| Cc1cc(CN(C)C(=O)CC(c2cccc(O)c2)c2ccccc2Cl)n[nH]1 (stereo not drawn) | inconclusive: 25.1 µM [cytotoxic, partial curve, poor fit] |
| Cc1cc(-c2nc3cc(F)ccc3s2)ccc1NC(=O)[C@@H](N)CCCCN | inconclusive: 13.4 µM [cytotoxic, partial curve, poor fit] |
| CCCCCNc1ncnc2c1CN(c1ccc(Cl)cc1)C(=O)CN2C | inactive |
| COc1ccc(C(=O)N2CCC3(C2)C(=NC2CCCCC2)NC(=O)N3c2cccc(OC)c2)cc1 (stereo not drawn) | inconclusive: 7.94 µM [cytotoxic, single point] |
| CCCN(CCC)C(=O)C1CCCN(c2ncnc3c2nc2n3CCCCC2)C1 (stereo not drawn) | inconclusive: 39.8 µM [cytotoxic, single point] |
| COc1ccccc1-c1cc(Nc2cccc(CS(N)(=O)=O)c2)ncn1 | inconclusive: 23.8 µM [cytotoxic, single point] |
| CC1(COc2ccc3c(c2)ncn3-c2ccc3cccc(N4CCC(N)CC4)c3n2)COC1 | inconclusive: 42.9 µM [cytotoxic, single point] and inconclusive: 10.6 µM [cytotoxic, partial curve, poor fit] |
| CC(C)C[C@@H]1N[C@H](C(=O)NCc2ccccc2)Cc2c[nH]c3cccc1c23 | inconclusive: 35.5 µM [cytotoxic, single point] |
| CCn1ccnc1CN(C)Cc1cn(C)nc1-c1ccc(Oc2ccccc2)cc1 | inactive |
